The values below come from the supplement of paper PMC12217912.

The chains are these.
B1: TEV protease; numbered along this chain (parent)
chain: MGESLFKGPRDYNPISSSICHLTNESDGHTTSLYGIGFGPFIITNKHLFRRNNGTLVVQSLHGVFKVKDTTTLQQHLVDGRDMIIIRMPKDFPPFPQKLKFREPQREERICLVTTNFQTKSMSSMVSDTSCTFPSGDGIFWKHWIQTKDGQCGSPLVSTRDGFIVGIHSASNFTNTNNYFTSVPKNFMELLTNQEAQQWVSGWRLNADSVLWGGHKVFMVKPEEPFQPVKEATQL

In the assay the parent is B1. Kind of assay: raw area under fraction-flipped curve 0-4 h after induction (AUC4h, not background-subtracted), DNA-recorder readout of cleavage of the substrate (dimensionless); higher = more cleavage of the substrate by the protease variant. Conditions: temperature: 34 °C; time window: 0-4 h after rhamnose induction. On the procedure: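 In vivo DNA recorder in E. coli TOP10(DE3) ΔrhaA at 34 °C. Each TEVp single-site mutant (parent TEVp 0) is paired with a single-site variant of the 7-mer TEVs (canonical ENLYFQ|S). The substrate sits between flexible linkers in a Bxb1-sfGFP-TEVs-SsrA fusion, so cleavage stabilises Bxb1 and speeds flipping of a recombination array, read by NGS. The value is the raw area under the fraction-flipped curve over 0-4 h after rhamnose induction (AUC4h), with ≥20 reads per time point. It is not background-subtracted; inactive controls average about 0.047.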

The list shows a part of the results. Sequences were assembled here from the parent chain. Inactive controls read about 0.05.
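Note: Bxb1 expression induced with 0.2% (w/v) L-rhamnose at OD600 near 0.5, cultures sampled hourly, flipped fraction per protease–substrate barcode pair counted by paired-end Illumina sequencing.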

As to MGESLFKGPRDYNPISSSICHLTNESDGHTTSLYGIGFGPFIITNKHLFRRNNGTLVVQSLHGVFKVKDTTTLQQHLVDGRDMIIIRMPKDFPPFPQKLKFREPQREERICLVTTNFQTKSMSSMVSDTSCTFPSGDGIFWKHWIQTKDGQCGSPLVSTRDGFIVGIHSASNFTNTNNYFTSVPKNFMELLTNQEAQQWVPGWRLNADSVLWGGHKVFMVKPEEPFQPVKEATQL [S201P], the “area with substrate ENAYFQS” value stood at 0.0624, the “area with substrate ENCYFQS” value is 0.0677, the “area with substrate ENDYFQS” value worked out at 0.0614 and the “area with substrate ENEYFQS” value is 0.0597. The “area with substrate ENFYFQS” value came to 0.062, the “area with substrate ENGYFQS” value came to 0.0525, the “area with substrate ENKYFQS” value was 0.0687 and the “area with substrate ENMYFQS” value came out at 0.0536. The “area with substrate ENNYFQS” value came out at 0.0681, the “area with substrate ENPYFQS” value is 0.0581, the “area with substrate ENQYFQS” value came out at 0.0632 and the “area with substrate ENRYFQS” value stood at 0.0694. Further, the “area with substrate ENSYFQS” value was determined as 0.0618, the “area with substrate ENTYFQS” value came out at 0.0608, the “area with substrate ENVYFQS” value worked out at 0.0554 and the “area with substrate ENWYFQS” value worked out at 0.0545.
Take MGESLFKGPRDYNPISSSICHLTNESDGHTTSLYGIGFGPFIITNKHLFRRNNGTLVVQSLHGVFKVKDTTTLQQHLVDGRDMIIIRMPKDFPPFPQKLKFREPQREERICLVTTNFQTKSMSSMVSDTSCTFPSGDGIFWKHWIQTKDGQCGSPLVSTRDGFIVGIHSASNFTNTNNYFTSVPKNFMELLTNQEAQQWVSGWRLNADCVLWGGHKVFMVKPEEPFQPVKEATQL [S209C]: the “area with substrate ENAYFQS” value was found to be 0.116, the “area with substrate ENDYFQS” value turned out to be 0.058, the “area with substrate ENEYFQS” value was determined as 0.0616 and the “area with substrate ENFYFQS” value was determined as 0.0663. For the same variant, the “area with substrate ENGYFQS” value came out at 0.0711, the “area with substrate ENHYFQS” value is 0.048, the “area with substrate ENIYFQS” value worked out at 0.0975 and the “area with substrate ENKYFQS” value is 0.0725. The “area with substrate ENMYFQS” value came to 0.0947, the “area with substrate ENQYFQS” value was 0.0593, the “area with substrate ENRYFQS” value amounted to 0.0641 and the “area with substrate ENSYFQS” value turned out to be 0.0579. In addition, the “area with substrate ENTYFQS” value was determined as 0.057, the “area with substrate ENVYFQS” value amounted to 0.0645 and the “area with substrate ENWYFQS” value stood at 0.0659.
For the variant MGESLFKGPRDYNPISSSICHLTNESDGHTTSLYGIGFGPFIITNKHLFRRNNGTLVVQSLHGVFKVKDTTTLQQHLVDGRDMIIIRMPKDFPPFPQKLKFREPQREERICLVTTNFQTKSMSSMVSDTSCTFPSGDGIFWKHWIQTKDGQCGSPLVSTRDGFIVGIHSASNFTNTNNYFTSVPKNFMELLTNQEAQYWVSGWRLNADSVLWGGHKVFMVKPEEPFQPVKEATQL [Q198Y], the “area with substrate ENAYFQS” value stood at 0.0611, the “area with substrate ENCYFQS” value came to 0.0509, the “area with substrate ENDYFQS” value turned out to be 0.0689 and the “area with substrate ENEYFQS” value amounted to 0.061. In addition, the “area with substrate ENGYFQS” value turned out to be 0.0525, the “area with substrate ENHYFQS” value stood at 0.0618, the “area with substrate ENIYFQS” value was 0.0887 and the “area with substrate ENKYFQS” value came to 0.0594. In addition, the “area with substrate ENMYFQS” value was 0.0648, the “area with substrate ENNYFQS” value was 0.0576, the “area with substrate ENPYFQS” value is 0.0574 and the “area with substrate ENQYFQS” value was 0.0734. The “area with substrate ENRYFQS” value worked out at 0.0539, the “area with substrate ENSYFQS” value turned out to be 0.0595, the “area with substrate ENTYFQS” value came out at 0.0568 and the “area with substrate ENVYFQS” value stood at 0.0576. The “area with substrate ENWYFQS” value came to 0.0459 and the “area with substrate ENYYFQS” value came to 0.0651.
Regarding MGESLFKGPRDYNPISSSICHLTNESDGHTTSLYGIGFGPFIITNKHLFRRNNGTLVVQSLHGVFKVKDTTTLQQHLVDGRDMIIIRMPKDFPPFPQKLKFREPQREERICLVTTNFQTKSMSSMVSDTSCTFPSGDGIFWKHWIQTKDGQCGSPLVSTRDGFIVGIHSASNFTNTNNYFTSVPKNFMELLTNQEAQQWVSVWRLNADSVLWGGHKVFMVKPEEPFQPVKEATQL [G202V], the “area with substrate ENAYFQS” value is 0.058, the “area with substrate ENDYFQS” value stood at 0.048, the “area with substrate ENEYFQS” value is 0.076 and the “area with substrate ENHYFQS” value came to 0.0657. In addition, the “area with substrate ENIYFQS” value stood at 0.0648, the “area with substrate ENKYFQS” value is 0.0639, the “area with substrate ENNYFQS” value is 0.0581 and the “area with substrate ENPYFQS” value came to 0.0564. The “area with substrate ENQYFQS” value is 0.0547, the “area with substrate ENRYFQS” value was found to be 0.0652, the “area with substrate ENTYFQS” value turned out to be 0.0394 and the “area with substrate ENWYFQS” value turned out to be 0.0496. The “area with substrate ENYYFQS” value was 0.0353.
Take MGESLFKGPRDYNPISSSICHLTNESDGHTTSLYGIGFGPFIITNKHLFRRNNGTLVVQSLHGVFKVKDTTTLQQHLVDGRDMIIIRMPKDFPPFPQKLKFREPQREERICLVTTNFQTKSMSSMVSDTSCTFPSGDGIFWKHWIQTKDGQCGSPLVSTRDGFIVGIHSASNFTNTNNYFTSVPKNFMELLTNQEACQWVSGWRLNADSVLWGGHKVFMVKPEEPFQPVKEATQL [Q197C]: the “area with substrate ENAYFQS” value was determined as 0.0445, the “area with substrate ENCYFQS” value worked out at 0.0622, the “area with substrate ENDYFQS” value was 0.0427 and the “area with substrate ENEYFQS” value is 0.0598. The “area with substrate ENFYFQS” value was determined as 0.0591, the “area with substrate ENGYFQS” value turned out to be 0.0484, the “area with substrate ENHYFQS” value came to 0.0352 and the “area with substrate ENIYFQS” value was 0.14. The “area with substrate ENNYFQS” value was determined as 0.0577, the “area with substrate ENQYFQS” value is 0.0633, the “area with substrate ENRYFQS” value turned out to be 0.0598 and the “area with substrate ENSYFQS” value was determined as 0.0629. The “area with substrate ENTYFQS” value came out at 0.0659.
Take MGESLFKGPRDYNPISSSICHLTNESDGHTTSLYGIGFGPFIITNKHLFRRNNGTLVVQSLHGVFKVKDTTTLQQHLVDGRDMIIIRMPKDFPPFPQKLKFREPQREERICLVTTNFQTKSMSSMVSDTSCTFPSGDGIFWKHWIQTKDGQCGSPLVSTRDGFIVGIHSASNFTNTNNYFTSVPKNFMELLTNQENQQWVSGWRLNADSVLWGGHKVFMVKPEEPFQPVKEATQL [A196N]: the “area with substrate ENAYFQS” value amounted to 0.0564, the “area with substrate ENCYFQS” value turned out to be 0.0588, the “area with substrate ENDYFQS” value was determined as 0.0613 and the “area with substrate ENEYFQS” value stood at 0.0547. Further, the “area with substrate ENFYFQS” value amounted to 0.0688, the “area with substrate ENGYFQS” value was 0.0661, the “area with substrate ENHYFQS” value came to 0.056 and the “area with substrate ENKYFQS” value was found to be 0.0556. Further, the “area with substrate ENNYFQS” value stood at 0.063, the “area with substrate ENPYFQS” value came to 0.0631, the “area with substrate ENQYFQS” value is 0.0584 and the “area with substrate ENSYFQS” value is 0.0868. The “area with substrate ENTYFQS” value is 0.0619 and the “area with substrate ENVYFQS” value amounted to 0.0639.
Turning to MGESLFKGPRDYNPISSSICHLTNESDGHTTSLYGIGFGPFIITNKHLFRRNNGTLVVQSLHGVFKVKDTTTLQQHLVDGRDMIIIRMPKDFPPFPQKLKFREPQREERICLVTTNFQTKSMSSMVSDTSCTFPSGDGIFWKHWIQTKDGQCGSPLVSTRDGFIVGIHSASNFTNTNNYFTSVPKNFMELLTNQEAQQWVSGWNLNADSVLWGGHKVFMVKPEEPFQPVKEATQL [R204N], the “area with substrate ENAYFQS” value came to 0.0632, the “area with substrate ENCYFQS” value came out at 0.0792, the “area with substrate ENDYFQS” value was 0.0575 and the “area with substrate ENEYFQS” value is 0.0592. The “area with substrate ENFYFQS” value came to 0.0769, the “area with substrate ENGYFQS” value was found to be 0.0606, the “area with substrate ENHYFQS” value came to 0.0602 and the “area with substrate ENIYFQS” value turned out to be 0.101. The “area with substrate ENKYFQS” value turned out to be 0.051, the “area with substrate ENMYFQS” value came out at 0.0902, the “area with substrate ENNYFQS” value was determined as 0.06 and the “area with substrate ENQYFQS” value stood at 0.0592. Besides, the “area with substrate ENRYFQS” value turned out to be 0.055, the “area with substrate ENSYFQS” value is 0.0701, the “area with substrate ENTYFQS” value turned out to be 0.0644 and the “area with substrate ENVYFQS” value is 0.0811. Besides, the “area with substrate ENYYFQS” value was 0.0584.
As for MGESLFKGPRDYNPISSSICHLTNESDGHTTSLYGIGFGPFIITNKHLFRRNNGTLVVQSLHGVFKVKDTTTLQQHLVDGRDMIIIRMPKDFPPFPQKLKFREPQREERICLVTTNFQTKSMSSMVSDTSCTFPSGDGIFWKHWIQTKDGQCGSPLVSTRDGFIVGIHSASNFTNTNNYFTSVPKNFMELLTNQEAQQWVSGWELNADSVLWGGHKVFMVKPEEPFQPVKEATQL [R204E], the “area with substrate ENAYFQS” value turned out to be 0.064, the “area with substrate ENDYFQS” value was found to be 0.061, the “area with substrate ENEYFQS” value is 0.0613 and the “area with substrate ENKYFQS” value came out at 0.0579. Further, the “area with substrate ENNYFQS” value worked out at 0.065, the “area with substrate ENPYFQS” value is 0.0668, the “area with substrate ENQYFQS” value amounted to 0.0634 and the “area with substrate ENRYFQS” value was determined as 0.0675. In addition, the “area with substrate ENSYFQS” value amounted to 0.0587, the “area with substrate ENTYFQS” value was 0.0719 and the “area with substrate ENVYFQS” value came to 0.0847.
On to MGESLFKGPRDYNPISSSICHLTNESDGHTTSLYGIGFGPFIITNKHLFRRNNGTLVVQSLHGVFKVKDTTTLQQHLVDGRDMIIIRMPKDFPPFPQKLKFREPQREERICLVTTNFQTKSMSSMVSDTSCTFPSGDGIFWKHWIQTKDGQCGSPLVSTRDGFIVGIHSASNFTNTNNYFTSVPKNFMELLTNQEAQQWVSGWRNNADSVLWGGHKVFMVKPEEPFQPVKEATQL [L205N], for which the “area with substrate ENAYFQS” value came to 0.0604, the “area with substrate ENCYFQS” value turned out to be 0.0686, the “area with substrate ENDYFQS” value is 0.046 and the “area with substrate ENEYFQS” value was determined as 0.0473. In addition, the “area with substrate ENFYFQS” value stood at 0.0636, the “area with substrate ENHYFQS” value came to 0.0712, the “area with substrate ENMYFQS” value is 0.0749 and the “area with substrate ENNYFQS” value is 0.0551. The “area with substrate ENQYFQS” value is 0.057 and the “area with substrate ENTYFQS” value stood at 0.072.
